# According to the BET-seq Pho4 binding data (Le et al. 2018):
# The list shows a part of the results. These are noisy estimates, calculated here from bound and input reads.
# Target: T1, Pho4 (S. cerevisiae) (UniProt P07270)
# T1 sequence: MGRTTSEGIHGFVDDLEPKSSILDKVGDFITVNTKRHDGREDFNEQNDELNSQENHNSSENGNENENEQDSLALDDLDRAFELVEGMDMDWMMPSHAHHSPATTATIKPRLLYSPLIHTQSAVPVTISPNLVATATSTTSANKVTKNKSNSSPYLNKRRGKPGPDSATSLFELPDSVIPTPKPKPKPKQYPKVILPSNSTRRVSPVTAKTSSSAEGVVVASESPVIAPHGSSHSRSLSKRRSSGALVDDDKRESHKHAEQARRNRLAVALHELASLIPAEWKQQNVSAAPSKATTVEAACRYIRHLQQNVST
# Assay: relative binding free energy (BET-seq); higher = weaker binding
# Conditions: reference: library average
row,Sequence,relative binding free energy [kcal/mol]
1,TACGTCACGTGTTATA,0.04
2,GTATTCACGTGTCAAT,0.23
3,TCTCACACGTGGGGTG,-0.1
4,GACGCCACGTGGGGGG,-0.29
5,CGATGCACGTGAGGTA,0.25
6,TAGGGCACGTGTGGAG,-0.04
7,CACGGCACGTGGTGAG,0.07
8,ATGTTCACGTGTGTTG,0.21
9,TGTATCACGTGGAGTA,0.04
10,GGCTTCACGTGCGTTG,0.26
11,TTTGTCACGTGAAACG,0.28
12,TGTTACACGTGTCTAT,-0.01
13,TGTGTCACGTGTACAG,-0.01
14,TTGCTCACGTGGAGGA,0.18
15,GTTTACACGTGATGAG,0.25
16,GGAGTCACGTGCACGG,0.2
17,TGGCACACGTGATGAT,0.31
18,GCGGTCACGTGATTTG,0.32
19,TGTTACACGTGAAAGA,0.37
20,GAGAGCACGTGGCGTT,-0.12
21,GCTGTCACGTGGATGT,0.21
22,GGTAACACGTGGTATG,-0.06
23,TGTCGCACGTGGGTTT,-0.21

row,Sequence,relative binding free energy [kcal/mol]
1,TGGGGCACGTGTGAAC,-0.07
2,GGCAGCACGTGATGGT,0.12
3,CGTGGCACGTGCGTAT,-0.15
4,GTATGCACGTGGGGGG,-0.13
5,AACGGCACGTGGGTGA,-0.28
6,ATGGTCACGTGAAGGT,0.22
7,CTGATCACGTGTGATT,0.3
8,AATGACACGTGAATGT,0.18
9,CAAGGCACGTGGTTTG,-0.16
10,AGGATCACGTGGGGCT,0
11,TTGGGCACGTGAGTCA,0.15
12,GCGCTCACGTGGGTCG,0.25
13,TGTGGCACGTGTCGGG,-0.07
14,AGTGGCACGTGCGATT,-0.18
15,TAAAGCACGTGTGGAT,-0.03
16,AAGGTCACGTGAAGGT,0.26
17,TTTATCACGTGTTTCG,0.19
18,AGTTGCACGTGTTCGG,-0.01
19,GGGGGCACGTGAATAA,0.08
20,TTGTCCACGTGATTAT,0.3
21,TTAGGCACGTGAGGGG,0.14
22,TGTCACACGTGGTTTA,0
23,TGTTTCACGTGACTGA,0.47

row,Sequence,relative binding free energy [kcal/mol]
1,AAGGACACGTGAGTTT,0.23
2,AGTGGCACGTGAGGTG,0.1
3,ATGGTCACGTGTGAGC,0.11
4,CGGATCACGTGGATGG,0.05
5,TTTGCCACGTGCGGTT,-0.13
6,TATATCACGTGCTGAG,0.14
7,TTTAGCACGTGGTACG,-0.21
8,AATGGCACGTGAACGT,0.06
9,TGCGTCACGTGGATCG,0.06
10,GTCAGCACGTGGTAGT,-0.01
11,GTGTTCACGTGGCATA,0.07
12,TGCGCCACGTGGATGG,-0.12
13,ATCAACACGTGGGGTG,-0.26
14,TGTCTCACGTGTCGGT,0.23
15,GTGGACACGTGTTTGA,-0.07
16,TGCCTCACGTGTGTGG,0.28
17,GTTGACACGTGGGGAG,-0.02
18,GGTGACACGTGTGCAG,0.13
19,ATTTGCACGTGTTAGG,0.08
20,GTGAGCACGTGTATGT,-0.04
21,GGGCGCACGTGTGAGT,0.01
22,TTTGTCACGTGTATGA,0.13
23,GGTGCCACGTGTTGAG,-0.01

row,Sequence,relative binding free energy [kcal/mol]
1,CGTGTCACGTGATTCG,0.29
2,TGTTTCACGTGAATGA,0.28
3,TGAAGCACGTGGGGGG,-0.21
4,CAGGTCACGTGTGATG,0.24
5,TCTATCACGTGTGAGG,0.16
6,GAGGTCACGTGTGAGT,0.23
7,GTAGTCACGTGGAGGT,0.22
8,TATAGCACGTGTATAG,0.02
9,CTTCGCACGTGAGAGG,0.24
10,GGCATCACGTGTGTGT,0.21
11,AGCTCCACGTGTTGTG,0.05
12,TGCTGCACGTGGTAAG,-0.12
13,GTTGGCACGTGAAAGA,0.24
14,GGGGCCACGTGGTAGA,-0.2
15,AGTTTCACGTGGGACG,0.29
16,CGTTTCACGTGGGCAT,0.23
17,ATTAACACGTGATAGG,0.21
18,TAGGCCACGTGGTGAA,-0.12
19,GCGTGCACGTGGCGGG,-0.09
20,TAATGCACGTGTTGAC,0.1
21,TATGGCACGTGGAGTC,-0.15
22,ACGGACACGTGAGGTT,0.3
23,AAGGACACGTGGGAGT,-0.09

row,Sequence,relative binding free energy [kcal/mol]
1,ATAGTCACGTGAGTGA,0.27
2,TAAAGCACGTGTGGGA,0.07
3,GAGGCCACGTGTAAGT,0.19
4,TATTCCACGTGGTTTA,0.06
5,TAAAGCACGTGTCGGT,-0.02
6,TGTTACACGTGCGAGA,0.24
7,TAGGACACGTGTTAAT,-0.03
8,GAGAGCACGTGATGGG,0.03
9,GAGGGCACGTGAGGCG,0.21
10,TAGAGCACGTGGGAAA,-0.06
11,AGGGGCACGTGGTGAG,-0.21
12,GGGTCCACGTGTTTAT,0
13,GGAGGCACGTGCTTAA,0.04
14,TCGAACACGTGAGGTT,0.22
15,ATCGGCACGTGTAGTT,0.06
16,ATATACACGTGGTTTC,0.06
17,GAGGGCACGTGAACGG,0.12
18,CTAGTCACGTGGAGTT,-0.08
19,AGTGTCACGTGTGGCG,0.11
20,CGCTGCACGTGGTGGG,-0.16
21,GGAGGCACGTGATTAA,0.04
22,TGAGTCACGTGCCGGG,0.02
23,TAGTGCACGTGACAGG,0.16
